# Laboratory results published in the BET-seq Pho4 binding data (Le et al. 2018).
# Some of the results follow. Values were computed here from the reads of four pooled replicates and scatter widely.
# Biological target: T1, Pho4 (S. cerevisiae) (UniProt P07270)
# T1 sequence: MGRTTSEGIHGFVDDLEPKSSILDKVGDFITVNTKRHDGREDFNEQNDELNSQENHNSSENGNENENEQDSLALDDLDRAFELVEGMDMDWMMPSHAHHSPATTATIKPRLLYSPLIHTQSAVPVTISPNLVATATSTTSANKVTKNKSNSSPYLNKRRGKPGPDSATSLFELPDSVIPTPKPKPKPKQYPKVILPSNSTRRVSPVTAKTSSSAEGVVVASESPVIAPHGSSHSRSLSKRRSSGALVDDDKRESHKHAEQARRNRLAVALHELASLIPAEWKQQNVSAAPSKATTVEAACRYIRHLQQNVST
# Experiment: relative binding free energy (BET-seq); higher = weaker binding
# Conditions: reference: library average
row,Sequence,relative binding free energy
1,GTGATCACGTGTTGGC,0.09 kcal/mol
2,GTGTACACGTGTTCGG,0.03 kcal/mol
3,ATAGTCACGTGTAGGT,0.08 kcal/mol
4,TTGTGCACGTGAGGTG,0.32 kcal/mol
5,TATAACACGTGTTCTG,-0.05 kcal/mol
6,TGTGTCACGTGAAGCT,0.26 kcal/mol
7,AGGATCACGTGTCAGT,0.25 kcal/mol
8,TGTTACACGTGATCGT,0.11 kcal/mol
9,GTCAGCACGTGGAGGT,-0.06 kcal/mol
10,GGAGTCACGTGATGAA,0.29 kcal/mol
11,ATATTCACGTGGTCTG,0.15 kcal/mol
12,CAGGTCACGTGATGGA,0.38 kcal/mol
13,TGGTACACGTGTTGGT,0.09 kcal/mol
14,AATTGCACGTGTTATA,-0.05 kcal/mol
15,GACTTCACGTGATGTG,0.39 kcal/mol
16,TGGGGCACGTGCATGT,-0.19 kcal/mol
17,GATTACACGTGTTTAA,0.17 kcal/mol
18,GGAGGCACGTGGTATC,-0.19 kcal/mol
19,TAGAGCACGTGGAATT,0.14 kcal/mol
20,TGGACCACGTGAGTGT,0.22 kcal/mol
21,ATGTACACGTGCTTGG,-0.08 kcal/mol
22,CTTTTCACGTGATGTT,0.28 kcal/mol
23,GAGATCACGTGGGTGG,0.06 kcal/mol
24,TTTTACACGTGTAGAT,0.23 kcal/mol
25,TGTGCCACGTGTAGCG,0 kcal/mol
26,TTATTCACGTGAGTCA,0.44 kcal/mol

row,Sequence,relative binding free energy
1,TGTAGCACGTGTGCTA,-0.15 kcal/mol
2,GAGCTCACGTGAGTGG,0.35 kcal/mol
3,AGCTACACGTGGTAGG,0.08 kcal/mol
4,TTGGACACGTGTGTGT,0.13 kcal/mol
5,ACAGGCACGTGGCGGT,-0.27 kcal/mol
6,AGGGACACGTGGTTAG,-0.07 kcal/mol
7,AGGGACACGTGGTAAA,0.09 kcal/mol
8,TTTAGCACGTGGGACT,-0.13 kcal/mol
9,AGGGGCACGTGGTAAT,-0.04 kcal/mol
10,ATAGGCACGTGGTTGC,-0.21 kcal/mol
11,GTGGTCACGTGGCTAG,0.05 kcal/mol
12,GGGTGCACGTGCTGAT,0 kcal/mol
13,TATAACACGTGTGGAG,-0.01 kcal/mol
14,TATGTCACGTGTCTGT,0.18 kcal/mol
15,AAGGTCACGTGGCGGC,0.14 kcal/mol
16,GTAGGCACGTGGCCTT,-0.07 kcal/mol
17,ATTGACACGTGTTATT,0.02 kcal/mol
18,GTCGACACGTGGAGTG,-0.01 kcal/mol
19,AAAGGCACGTGGGAGA,-0.08 kcal/mol
20,TTGGCCACGTGTAGTT,-0.03 kcal/mol
21,GGTCTCACGTGGAATT,0.39 kcal/mol
22,GTTAGCACGTGGGCTT,-0.11 kcal/mol
23,TTGTTCACGTGGACGG,0.28 kcal/mol
24,GGGTGCACGTGGGGTA,-0.12 kcal/mol
25,TGGCGCACGTGTTAAT,-0.02 kcal/mol
26,TCTATCACGTGTTCGT,0.07 kcal/mol

row,Sequence,relative binding free energy
1,GGGTTCACGTGGGCCA,0.23 kcal/mol
2,GTTTGCACGTGTAAAT,0.25 kcal/mol
3,TGGAGCACGTGAGGAA,0.23 kcal/mol
4,ATTCTCACGTGTGATT,0.23 kcal/mol
5,GGAATCACGTGGTTTT,0.22 kcal/mol
6,TTTGTCACGTGGGCGC,0.01 kcal/mol
7,TTATCCACGTGTGATT,0.11 kcal/mol
8,TAGTTCACGTGAGGTA,0.29 kcal/mol
9,ATAGGCACGTGTTGGT,-0.09 kcal/mol
10,GAGGGCACGTGAATTT,0.17 kcal/mol
11,TTAGACACGTGTTTTG,0.08 kcal/mol
12,GGCTACACGTGTGTTG,0.07 kcal/mol
13,GTGAGCACGTGTTATT,-0.08 kcal/mol
14,AGGAGCACGTGGAAGT,0.01 kcal/mol
15,AATGTCACGTGTTTTC,0.04 kcal/mol
16,TGGGGCACGTGATGAG,-0.07 kcal/mol
17,AAGGGCACGTGCGATG,-0.09 kcal/mol
18,CGGAGCACGTGGTGAG,-0.02 kcal/mol
19,TGTGTCACGTGTTATG,0.02 kcal/mol
20,GATCTCACGTGCGGGG,0.24 kcal/mol
21,AGAGTCACGTGAAGTG,0.37 kcal/mol
22,GGTTACACGTGCAGTA,0.14 kcal/mol
23,AATTACACGTGGGGGC,0.06 kcal/mol
24,TGTTGCACGTGAAGAT,0.21 kcal/mol
25,TTAGTCACGTGGCTGT,-0.01 kcal/mol
26,TGCTTCACGTGTATTG,0.2 kcal/mol

row,Sequence,relative binding free energy
1,GTCAGCACGTGTGTGA,-0.03 kcal/mol
2,AGTTTCACGTGGGTGC,0.18 kcal/mol
3,AGGCGCACGTGTTTTT,-0.07 kcal/mol
4,TTGAGCACGTGAGACT,0.13 kcal/mol
5,AGGCTCACGTGGCGGT,0.21 kcal/mol
6,TTCTTCACGTGCTGAG,0.47 kcal/mol
7,AGGTTCACGTGAAGGT,0.29 kcal/mol
8,TTGGACACGTGCATTT,0.06 kcal/mol
9,GTTGTCACGTGAGTTG,0.47 kcal/mol
10,GTAGGCACGTGGTTCG,-0.14 kcal/mol
11,TGTGTCACGTGGACAT,-0.02 kcal/mol
12,TGGGGCACGTGCGATT,-0.17 kcal/mol
13,TATTTCACGTGCATTT,0.18 kcal/mol
14,AGTGGCACGTGTGTCC,-0.12 kcal/mol
15,GGAGCCACGTGTTGAG,0.21 kcal/mol
16,GAGGTCACGTGGTGAG,0.21 kcal/mol
17,GGTTCCACGTGTGATA,0.18 kcal/mol
18,ATCAACACGTGTGTGG,-0.04 kcal/mol
19,GAGGGCACGTGAATGT,0.11 kcal/mol
20,GGGGGCACGTGCAAGG,-0.12 kcal/mol
21,GGGCACACGTGTGGTA,0.02 kcal/mol
22,ACGTTCACGTGTAAGG,0.25 kcal/mol
23,GTATACACGTGAGTGC,0.35 kcal/mol
24,TCAGACACGTGAGGTG,0.1 kcal/mol
25,ATTTTCACGTGACGCT,0.45 kcal/mol
26,TGTTACACGTGGTTAC,0.01 kcal/mol

row,Sequence,relative binding free energy
1,TTTAGCACGTGTATGT,-0.11 kcal/mol
2,CAAAGCACGTGGTTTG,-0.03 kcal/mol
3,GTACTCACGTGTGAAT,0.36 kcal/mol
4,ATAGGCACGTGTTTGC,-0.25 kcal/mol
5,TATGGCACGTGTGTAA,0.07 kcal/mol
6,GAGGTCACGTGCATGG,0.19 kcal/mol
7,CTGTTCACGTGGGTAT,0.13 kcal/mol
8,CTCTGCACGTGGTGTG,-0.19 kcal/mol
9,ATGGCCACGTGGGGAG,-0.18 kcal/mol
10,ACGTTCACGTGTTATG,0.22 kcal/mol
11,TAACGCACGTGGGATT,-0.21 kcal/mol
12,AATCGCACGTGGTATT,-0.09 kcal/mol
13,GGGGGCACGTGACGCG,0.01 kcal/mol
14,TTGAGCACGTGGGTCA,-0.29 kcal/mol
15,TGAGACACGTGAGTGT,0.19 kcal/mol
16,CAGGACACGTGTTATG,0.08 kcal/mol
17,CTCGGCACGTGTGGAG,-0.03 kcal/mol
18,TTGTTCACGTGGAAAA,0.19 kcal/mol
19,TAAGTCACGTGCTGAG,0.11 kcal/mol
20,GTTTACACGTGTCTAG,0.11 kcal/mol
21,TATTGCACGTGATTCG,0.01 kcal/mol
22,TGGTGCACGTGAAGAA,0.22 kcal/mol
23,GGCTTCACGTGGACGT,0.28 kcal/mol
24,CTGGTCACGTGAGGCA,0.2 kcal/mol
25,GTGAGCACGTGGAGCG,-0.02 kcal/mol
26,TGTGACACGTGGGTAT,-0.18 kcal/mol

row,Sequence,relative binding free energy
1,GCTTACACGTGAGTTT,0.29 kcal/mol
2,TACGACACGTGGGGGG,-0.03 kcal/mol
3,ATTTTCACGTGGTGGA,0.28 kcal/mol
4,AGTCGCACGTGAGCTG,0.24 kcal/mol
5,TGGTACACGTGAGTGG,0.38 kcal/mol
6,TGCGGCACGTGAGATA,0.15 kcal/mol
7,CTGGGCACGTGGTCTG,-0.2 kcal/mol
8,TAGAGCACGTGGTTGC,-0.22 kcal/mol
9,GTGTTCACGTGTCCGG,0.19 kcal/mol
10,TGTTACACGTGGAGAT,0.01 kcal/mol
11,GTCGTCACGTGCTGGA,0.12 kcal/mol
12,AATGTCACGTGAGTTG,0.35 kcal/mol
13,AATGGCACGTGTGAGA,-0.09 kcal/mol
14,TGACACACGTGTTATT,0.15 kcal/mol
15,GCTGGCACGTGCGGGG,-0.08 kcal/mol
16,AGTATCACGTGTGGAA,0.21 kcal/mol
17,AGGATCACGTGGGTGC,-0.09 kcal/mol
18,TGTTGCACGTGTCTTG,-0.02 kcal/mol
19,AGGGTCACGTGCGCTT,0.01 kcal/mol
20,TGCAGCACGTGATAGG,0.14 kcal/mol
21,TTTATCACGTGTGGGA,0.18 kcal/mol
22,AGAGTCACGTGGTTGC,0.2 kcal/mol
23,GAGTTCACGTGGTGGT,0.29 kcal/mol
24,TGTGTCACGTGCGGCA,0.13 kcal/mol
25,TTTGTCACGTGCATGT,-0.11 kcal/mol
26,GTAATCACGTGATAAG,0.33 kcal/mol

row,Sequence,relative binding free energy
1,ATCGGCACGTGATTTT,0.02 kcal/mol
2,TTTTGCACGTGGGCGT,-0.13 kcal/mol
3,GTGGTCACGTGGGCCT,-0.04 kcal/mol
4,ATGTGCACGTGAAAGT,0.22 kcal/mol
5,GTCGTCACGTGGTTGC,0.2 kcal/mol
6,GAGTCCACGTGGAGGT,0.08 kcal/mol
7,GGTATCACGTGTCGGC,0.34 kcal/mol
8,CGTTTCACGTGTGGAC,0.46 kcal/mol
9,TTAAACACGTGGCATT,0.03 kcal/mol
10,CGTGTCACGTGGCGGC,-0.11 kcal/mol
11,AGGCCCACGTGGGAGG,-0.21 kcal/mol
12,TGTTCCACGTGTTGGG,0.17 kcal/mol
13,CTGGTCACGTGGCGTT,0.1 kcal/mol
14,TGTGGCACGTGTAACT,-0.08 kcal/mol
15,ATGATCACGTGCTTTG,0.11 kcal/mol
16,TTGGTCACGTGGGCAA,-0.04 kcal/mol
17,TATGGCACGTGTGTGA,0.01 kcal/mol
18,TGGTACACGTGAAAAG,0.44 kcal/mol
19,AGTTGCACGTGTGGGA,0.03 kcal/mol
20,GTATACACGTGCATTT,0.1 kcal/mol
21,TTGGTCACGTGAGAGG,0.45 kcal/mol
22,ACAGTCACGTGAGGGA,0.33 kcal/mol
23,GGATACACGTGGGACT,0.23 kcal/mol
24,TTGTGCACGTGATGTT,0.11 kcal/mol
25,GAGGGCACGTGTGGTC,0.02 kcal/mol
26,CGTGTCACGTGAAAGT,0.26 kcal/mol

row,Sequence,relative binding free energy
1,TGCTGCACGTGTTTGA,-0.08 kcal/mol
2,TAGGGCACGTGTAGAA,-0.04 kcal/mol
3,ACAATCACGTGTATGG,0.21 kcal/mol
4,CTGTTCACGTGTTGTA,0.13 kcal/mol
5,TATATCACGTGATTGA,0.14 kcal/mol
6,AGAGGCACGTGACGGG,0.05 kcal/mol
7,GTTAGCACGTGTTATT,0.04 kcal/mol
8,TGATGCACGTGTATAA,-0.02 kcal/mol
9,AATCGCACGTGTTAGG,-0.01 kcal/mol
10,GGAAGCACGTGGTTAT,-0.16 kcal/mol
11,GAATTCACGTGGGTAA,0.28 kcal/mol
12,GTTATCACGTGAGTAT,0.35 kcal/mol
13,GTAGACACGTGGAGAT,0.09 kcal/mol
14,CGTGTCACGTGTAGGA,0.11 kcal/mol
15,GATAACACGTGGGCTT,0.05 kcal/mol
16,TGCAGCACGTGCGGGG,-0.19 kcal/mol
17,GGTATCACGTGATGCG,0.17 kcal/mol
18,ATTTCCACGTGGTGAT,0.09 kcal/mol
19,TAGGTCACGTGAGAAG,0.33 kcal/mol
20,TTTTTCACGTGCGTGT,0.22 kcal/mol
21,TCCGTCACGTGGGGTA,-0.12 kcal/mol
22,AGCTTCACGTGGAGTT,0.06 kcal/mol
23,TAGTACACGTGTGGAG,0.23 kcal/mol
24,ATTTCCACGTGTTTTT,0.05 kcal/mol
25,ATTGACACGTGTGTAC,0.13 kcal/mol
26,ATGGTCACGTGAGTTT,0.25 kcal/mol

row,Sequence,relative binding free energy
1,CTTGTCACGTGAGGGC,0.22 kcal/mol
2,ATGGTCACGTGTTTTG,0.23 kcal/mol
3,AATTTCACGTGGGCTA,0.05 kcal/mol
4,GGTTTCACGTGAAGAG,0.51 kcal/mol
5,AGTAGCACGTGTGAGC,-0.02 kcal/mol
6,TGTGACACGTGTATTC,0.23 kcal/mol
7,AAAGGCACGTGATGAA,0.07 kcal/mol
8,CTTTGCACGTGGGATG,-0.05 kcal/mol
9,TTTGGCACGTGTGTTA,0.01 kcal/mol
10,TAGGACACGTGTGATG,0.2 kcal/mol
11,GTATCCACGTGGATGT,0.15 kcal/mol
12,TGGGCCACGTGGCGTA,-0.22 kcal/mol
13,TGTGGCACGTGGCCAT,-0.25 kcal/mol
14,ATGTACACGTGTTTGA,-0.01 kcal/mol
15,TGTGTCACGTGGTGGA,0.02 kcal/mol
16,TAGTCCACGTGGGGCT,-0.17 kcal/mol
17,CTGGCCACGTGGTTTT,-0.06 kcal/mol
18,CGAGTCACGTGGTGAG,-0.07 kcal/mol
19,TGACGCACGTGTGGGA,-0.07 kcal/mol
20,ATAGTCACGTGTGGTT,0.13 kcal/mol
21,CGATGCACGTGGTGAG,0.06 kcal/mol
22,CTGGACACGTGAGTTT,0.35 kcal/mol
